Hit rate of the full screen: of about 310,000 compounds, about 14,000 (4.5%) showed an effect of 50% or more. The effect is printed as a negative number. The list shows a part of the results.
Target: human ether-à-go-go-related gene (hERG) potassium channel (human, UniProt Q12809)
Assay: primary screen, population patch clamp on CHO cells stably expressing hERG
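Also: peak tail current of the secondary pulse compared with the same well before compound.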

Sequence of human ether-à-go-go-related gene (hERG) potassium channel (Q12809 whole entry, looked up): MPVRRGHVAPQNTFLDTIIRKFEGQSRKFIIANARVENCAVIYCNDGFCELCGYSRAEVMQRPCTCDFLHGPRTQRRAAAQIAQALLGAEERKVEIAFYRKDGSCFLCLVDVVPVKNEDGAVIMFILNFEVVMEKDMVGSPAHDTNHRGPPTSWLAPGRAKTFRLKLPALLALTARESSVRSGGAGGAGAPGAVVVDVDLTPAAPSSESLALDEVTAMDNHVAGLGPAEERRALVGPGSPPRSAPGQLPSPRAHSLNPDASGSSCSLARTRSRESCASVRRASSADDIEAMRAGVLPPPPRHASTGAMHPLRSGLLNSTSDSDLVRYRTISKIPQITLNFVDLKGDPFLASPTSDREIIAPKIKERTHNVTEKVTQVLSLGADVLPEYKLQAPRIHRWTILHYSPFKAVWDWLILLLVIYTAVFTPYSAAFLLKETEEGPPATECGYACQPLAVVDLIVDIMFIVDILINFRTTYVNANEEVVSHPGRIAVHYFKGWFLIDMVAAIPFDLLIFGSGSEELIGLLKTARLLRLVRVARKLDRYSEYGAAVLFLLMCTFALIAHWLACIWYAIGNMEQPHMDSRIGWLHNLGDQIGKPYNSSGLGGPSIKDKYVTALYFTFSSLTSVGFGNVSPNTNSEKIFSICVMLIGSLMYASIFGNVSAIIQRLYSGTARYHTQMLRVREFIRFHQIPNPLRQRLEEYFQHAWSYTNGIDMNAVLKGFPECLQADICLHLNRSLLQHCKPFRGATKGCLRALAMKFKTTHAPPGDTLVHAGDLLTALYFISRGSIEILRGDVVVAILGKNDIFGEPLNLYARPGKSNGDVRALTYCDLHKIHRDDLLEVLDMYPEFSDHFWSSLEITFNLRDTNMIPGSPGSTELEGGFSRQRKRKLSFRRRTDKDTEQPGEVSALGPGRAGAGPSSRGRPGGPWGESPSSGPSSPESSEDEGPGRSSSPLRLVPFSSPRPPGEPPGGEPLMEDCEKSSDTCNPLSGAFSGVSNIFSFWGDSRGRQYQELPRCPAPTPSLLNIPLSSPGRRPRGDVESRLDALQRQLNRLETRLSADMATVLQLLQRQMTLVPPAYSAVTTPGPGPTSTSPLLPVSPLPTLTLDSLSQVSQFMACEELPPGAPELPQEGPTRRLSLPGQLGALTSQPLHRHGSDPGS

| Structure (SMILES) | hERG current change (%, negative = inhibition) at 10uM |
| --- | --- |
| COc1ccccc1N1CCN(C(=O)CSc2ccc3c(C)cc(C)nc3n2)CC1 | -19.7% |
| CCC(=O)Nc1ccc(Cl)c(NC(=S)NC(=O)c2cc3ccccc3o2)c1 | -3.18% |
| CC1CCN(CC(O)COc2ccc(OCC(O)CN3CCC(C)CC3)cc2)CC1 (stereo not shown) | 3.84% |
| CCOc1cc(C(N)=O)cc(Br)c1OCc1ccccc1 | -7.96% |
| CCOC(=O)c1c(/N=C/N(C)C)sc(C(=O)OC)c1C | 0.173% |
| Cc1ccc(S(=O)(=O)N/N=C\c2ccc(Cl)c([N+](=O)[O-])c2)cc1 | 18.4% |
| CCC(=O)N1CCc2cc(OC)c(OC)cc2C1COc1ccc(F)cc1 (stereo not shown) | -22.3% |
| Cl.N/C(=N\N=C/c1ccc(F)cc1)N/N=C\c1ccc(F)cc1 | -44.4% |
| CCOc1cc(/C=N\O)cc(Cl)c1OCC | 6.77% |
| O=C(Cn1cnc2c(oc3nc4c(cc32)CCCC4)c1=O)Nc1ccccc1 | 17.3% |
| Oc1ccc(-c2nc(-c3ccc(O)c(O)c3)cs2)cc1 | -5.31% |
| CC1CCCCN1C(=O)CSc1nnc(-c2ccco2)n1C (stereo not shown) | 4.88% |
| CC1CCCN(S(=O)(=O)c2cccc(C(=O)NCc3ccco3)c2)C1 (stereo not shown) | -26.4% |
| CC1CCCCC1Nc1nc2ccc(Cl)cc2n2cnnc12 (stereo not shown) | -12.4% |
| O=C(NCCN1CCOCC1)C(=O)NCC1OCCN1S(=O)(=O)c1ccccc1 (stereo not shown) | 9.65% |
| O=c1cc2c(nn1Cc1c(Cl)cccc1Cl)-c1ccccc1CC2 | 4.29% |
| O=C(CCCCn1c(=O)[nH]c2ccsc2c1=O)NCc1cccnc1 | -6.6% |
| CC1=C(C(=O)OCC2CCCO2)C(c2ccc(Cl)c(Cl)c2)NC(=O)N1 (stereo not shown) | 11.4% |
| CN(C)c1ccc(NC(=O)c2ccc3nsnc3c2)cc1 | -14.1% |
| Cc1ccc(CNCc2cc(Cl)ccc2O)cc1.Cl | -13.3% |
| O=[N+]([O-])c1cc(-c2nnc(Nc3ccccc3)c3ccccc23)ccc1N1CCOCC1 | -26.3% |
| O=C(COC(=O)Cc1ccc(Br)cc1)NCc1ccc(F)cc1 | 11.6% |

| Structure (SMILES) | hERG current change (%, negative = inhibition) at 10uM |
| --- | --- |
| O=C(CSc1ncnc2c1cnn2Cc1ccccc1)Nc1ccc2c(c1)OCCO2 | -1.65% |
| Nc1ncc(-c2nnnn2-c2ccc(Cl)cc2)c(-c2ccc(Cl)cc2)n1 | 3.7% |
| Cc1ccc(NC(=O)CN(C)C(=O)COC(=O)c2oc3ccccc3c2C)cc1 | 5.09% |
| CCOc1c(Br)cc(/C=C2\C(=O)N(CCC#N)N=C2C)cc1OC | -3.68% |
| O=C(Nc1cc(C(F)(F)F)ccc1N1CCOCC1)c1cccnc1 | -42.3% |
| CCN(CC)S(=O)(=O)c1ccc(C(=O)OCC(=O)N2CCOCC2)cc1 | 29.2% |
| CCO[C@@H]1OC(C(=O)N2CCOCC2)=C[C@H](c2ccc(C(F)(F)F)cc2)[C@H]1CCCO | -0.142% |
| Cc1ccc(CN(CC(=O)NC2CCCCC2)C(=O)c2csnn2)cc1 | -13.9% |
| COc1ccc(C(C(=O)NC2CCCC2)N(C(=O)c2ccco2)c2ccc3c(c2)OCO3)cc1OC (stereo not shown) | -13.6% |
| NNC(=O)CN1C(c2ccccc2)=Nc2ccc(Br)cc2C1c1ccccc1 (stereo not shown) | -20% |
| CCn1c(SCC(=O)N(C)C)nc2cc(S(=O)(=O)N3CCCCC3)ccc21 | -9.54% |
| Cc1ccc(/C(O)=C2/C(=O)C(=O)N(CC(=O)O)C2c2ccc([N+](=O)[O-])cc2)cc1 (stereo not shown) | 5.93% |
| COc1cc(/C=N/n2c(-c3ccccc3)n[nH]c2=S)cc(OC)c1O | 35.4% |
| COCc1ccc(C(=O)N2CCCC(C(=O)c3ccc(SC)cc3)C2)s1 (stereo not shown) | -42.6% |
| CCC(C)Sc1nnc(Cc2cc(=O)[nH]c(=O)[nH]2)n1-c1ccc(OC)cc1 (stereo not shown) | 7.16% |
| O=C(COc1ccccc1Cl)N(Cc1ccco1)C1CCS(=O)(=O)C1 (stereo not shown) | -12.3% |
| CCCCCCC1/C(=N\NC(=O)c2ccccc2)CCC1C(=O)OC (stereo not shown) | -43.8% |
| COc1cc(C(=O)Nc2ccc(S(=O)(=O)Nc3cnc4ccccc4n3)cc2)cc(OC)c1OC | 25.5% |
| Cc1cccc(N2CCN(C(=O)Cn3nc(Cc4ccncc4)c4ccccc4c3=O)CC2)c1C | -61.3% |
| CC(C)(C)c1ccc(SCCc2ccccn2)cc1 | 6.42% |
| Cc1ccn2cc(C(=O)N3CCN(c4cnn(-c5ccccc5)c(=O)c4Cl)CC3)nc2c1 | -46.7% |
| COc1cccc(SCC2CSc3nc4ccccc4c(=O)n32)c1 (stereo not shown) | -22.3% |

| Structure (SMILES) | hERG current change (%, negative = inhibition) at 10uM |
| --- | --- |
| CCC(=O)NCCCc1nc2ccccc2n1Cc1ccccc1F | -39.8% |
| O=C(N/N=C/c1ccc2ncccc2c1)c1ccco1 | -4.47% |
| c1cc(CNc2ccc(N3CCOCC3)cc2)ccn1 | 7.28% |
| CCN(CC)CCN(Cc1cc2cc3c(cc2[nH]c1=O)OCO3)C(=S)NCc1ccco1 | -55.8% |
| COc1cccc(NC(=O)c2ccccc2N2C(=O)C3C4C=CC(C4)C3C2=O)c1 (stereo not shown) | -1.23% |
| Cn1c(=O)oc2cc(S(=O)(=O)NCCN3CCN(c4ccccc4F)CC3)ccc21 | -11.8% |
| CN1CCN(c2nc(NCc3ccco3)nc(N)c2[N+](=O)[O-])CC1 | -29.8% |
| O=C(N/N=C/c1sc(=O)[nH]c1-[n+]1ccccc1)c1ccccc1[O-] | 5.35% |
| O=C(Oc1cccc(N2C(=O)CCC2=O)c1)C1CC(=O)N(c2ccc(F)cc2)C1 (stereo not shown) | 7.76% |
| Clc1cccc(Oc2cnns2)c1Cl | -5.81% |
| COc1cc(OC)cc(C(=O)NNC(=O)CCc2ccccc2)c1 | 28.9% |
| Cc1ccccc1Cn1ccc(NC(=O)CCSc2nc(-c3ccco3)cc(C(F)(F)F)n2)n1 | 9.05% |
| O=C(Nc1cccc2cccnc12)c1ccc2c(c1)OCCO2 | 9.31% |
| O=S(=O)(c1ccccc1)N1N=C(c2cccs2)CC1c1cccc(O)c1 (stereo not shown) | 19% |
| CCN(c1ccccc1)S(=O)(=O)c1ccc(N2CCN(c3ccccc3O)CC2)nc1 | -0.538% |
| O=C(NNc1ccccc1)C(=O)NNS(=O)(=O)c1ccc([N+](=O)[O-])cc1 | -19.2% |
| CCC(=O)NC(=S)Nc1ccccc1C(F)(F)F | 6.88% |
| COc1cc(/C=N/NC(N)=S)ccc1OCC(=O)Nc1ccc(C)cc1 | 5.47% |
| Nc1cc(N)nc(SCC(=O)N2CCc3ccccc32)n1 | 6.65% |
| CC(=O)Nc1ccccc1C(=O)N1CC(C)OC(C)C1 (stereo not shown) | 11.6% |
| CN1C(=O)CC2(CC(=O)N(Cc3ccccc3)C2)C1=O (stereo not shown) | 9.7% |
| CCc1cccc(NC(=O)COC(=O)c2cc([N+](=O)[O-])ccc2N2CCOCC2)c1 | -7.99% |

| Structure (SMILES) | hERG current change (%, negative = inhibition) at 10uM |
| --- | --- |
| Cc1ccc(S(=O)(=O)n2nc(C)cc2N)cc1 | -1.2% |
| CCc1cccc2c(C(=O)CSc3nncn3-c3ccc(OC)cc3)c[nH]c12 | 24.7% |
| COc1ccc(C(=O)NC(=S)NC(C)(C)C)cc1Br | 8.36% |
| COc1ccccc1N1CCN(c2cc(N3CCCC3)nc(C)n2)CC1 | -65.3% |
| Brc1ccc(C2=Nn3c(Cn4nnc5ccccc54)nnc3SC2)cc1 | 13.7% |
| NS(=O)(=O)c1ccc(NC2=CC(=O)C(=O)c3ccccc32)cc1 | 10.6% |
| CS(=O)(=O)N1CCCC(C(=O)Nc2ccccc2C(F)(F)F)C1 (stereo not shown) | 15% |
| CC(NC(=O)Nc1ccc(Cl)cc1)c1ccccc1 (stereo not shown) | 20.2% |
| Cc1cc(C)nc(SC2CCCCC2NS(=O)(=O)c2ccccc2)n1 (stereo not shown) | -18.5% |
| COc1ccc(C(O)c2nc3ccccc3n2C(C)C)cc1 (stereo not shown) | -22.9% |
| COc1ccccc1NC(=O)NCCCCc1ccccc1 | -1.68% |
| COC(=O)c1c(N)sc2c1CCN(c1ncc(C(F)(F)F)cc1Cl)C2 | 0.549% |
| N#Cc1ccc(C(=O)N(Cc2ccco2)c2c(N)n(Cc3ccccc3)c(=O)[nH]c2=O)cc1 | 4.78% |
| CCc1ccc(CN2CCC(n3nccc3NC(=O)c3ccccc3Cl)CC2)cc1 | -84.4% |
| O=C(c1ccc(Cl)c(S(=O)(=O)N2CCOCC2)c1)N(c1ccccn1)C1CCCCC1 | -9.25% |
| NS(=O)(=O)c1ccc(NC(=O)Nc2ccc(S(N)(=O)=O)cc2)cc1 | 20.2% |
| O=C(Nc1ccc(-c2noc(-c3ccccc3F)n2)cc1)c1cccs1 | 9.29% |
| COc1ccc(OC)c2[nH]c(=O)c(CCNC(=S)NC(C)(C)C)cc12 | -46.6% |
| CCCCOC(=O)c1ccc(NC(=O)Nc2ccc(OC)c(OC)c2)cc1 | 13.5% |
| Cn1cc(C(=O)OCC(=O)NC2CCCC2)c2ccccc21 | 7.9% |
| O=C(NNC1=NCCC1)c1cccc(Br)c1 | 8.03% |
| Br.CCCCCCN1Cc2ccccc2C1 | -39.3% |

Reference: publication PMC4336329 (PLoS ONE, 2015)
